# Whole data set: some 33,000 sequences, median “E-score (-0.5 to 0.5)” near -0.021, cut for the highest 2% near 0.32. The list shows a part of the results.
# Molecular target: T1, Zap1 (UniProt P47043)
# T1 sequence: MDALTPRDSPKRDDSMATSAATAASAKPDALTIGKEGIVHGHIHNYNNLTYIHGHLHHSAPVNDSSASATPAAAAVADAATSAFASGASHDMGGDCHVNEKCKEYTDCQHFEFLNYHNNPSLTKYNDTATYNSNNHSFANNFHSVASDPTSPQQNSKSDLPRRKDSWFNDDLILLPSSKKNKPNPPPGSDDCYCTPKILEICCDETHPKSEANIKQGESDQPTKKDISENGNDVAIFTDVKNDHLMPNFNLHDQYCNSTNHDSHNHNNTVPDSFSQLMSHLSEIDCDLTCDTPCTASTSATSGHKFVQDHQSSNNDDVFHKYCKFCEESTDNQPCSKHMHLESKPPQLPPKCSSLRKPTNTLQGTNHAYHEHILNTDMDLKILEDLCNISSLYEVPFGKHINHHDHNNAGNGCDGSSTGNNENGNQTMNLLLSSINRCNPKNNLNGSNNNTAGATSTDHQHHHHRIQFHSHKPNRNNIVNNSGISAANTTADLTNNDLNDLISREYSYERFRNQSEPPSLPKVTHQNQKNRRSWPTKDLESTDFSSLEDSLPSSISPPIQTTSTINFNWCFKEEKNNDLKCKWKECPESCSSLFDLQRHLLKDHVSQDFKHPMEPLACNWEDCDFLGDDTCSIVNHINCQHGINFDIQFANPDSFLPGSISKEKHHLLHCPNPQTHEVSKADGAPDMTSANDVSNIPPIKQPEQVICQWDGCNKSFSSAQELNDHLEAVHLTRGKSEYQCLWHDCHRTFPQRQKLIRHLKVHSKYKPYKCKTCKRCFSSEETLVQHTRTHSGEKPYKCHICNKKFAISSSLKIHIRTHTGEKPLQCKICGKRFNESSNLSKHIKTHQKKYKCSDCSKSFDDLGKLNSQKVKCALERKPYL
# Test: PBM E-score (8-mer binding enrichment) (E-score (-0.5 to 0.5)); higher = stronger / more preferred TF binding; most listed sequences are background and not binding sites
# Settings: protein concentration: 200 nM; construct: GST-full length
# Outline: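 Bound GST-tagged yeast transcription factors, applied at about 100-200 nM to double-stranded universal all-10-mer Agilent arrays, were detected with fluorescent anti-GST. Scans were normalised with masliner. A modified Wilcoxon-Mann-Whitney statistic, the E-score, was assigned to each ungapped eight-base word pooled with its reverse complement by the Universal PBM Analysis Suite.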
row,Sequence,PBM E-score
1,AATTCCAG,0.0209
2,CATCCTCA,-0.0086
3,CAGTGATA,0.0546
4,AAAAGCTT,0.0343
5,CAGTACAA,0.0427
6,ACATGTCC,0.136
7,AATCTCAC,-0.102
8,GTACGGGA,-0.143
9,CCATTGGG,-0.0809
10,GGCAGTAC,-0.171
11,ATTTCAAG,0.102
12,GCCGGTAC,0.00379
13,AAGAGAGA,-0.113
14,GCGCATCC,-0.122
15,GTATACAA,0.0691
16,GGGGAGTA,-0.198
17,ATACTTGG,0.0112
18,AATGGGTG,0.021
19,ATCTATGG,-0.0335
20,ACGAGACA,-0.0948
21,GTGTCAAA,0.116
22,AAAGGCCG,0.0384
23,ATCAGTCG,-0.0695
24,CATTAACC,0.379
25,CCTACGTC,-0.1

row,Sequence,PBM E-score
1,ATGAATTA,0.112
2,ACTGTTCT,-0.0178
3,AAAACCAA,0.209
4,ATTCACTC,-0.105
5,CATTCCCG,0.0376
6,AGCGAAAT,-0.0288
7,GCGAAAGA,0.00173
8,GAATACAA,-0.00279
9,GACAAAAA,0.242
10,CGTTGCGC,-0.0628
11,ATTGGCTC,-0.133
12,ATCGGGGG,-0.136
13,CGAAGGTC,-0.00454
14,ACGCCCTC,-0.0897
15,AATGATCA,0.157
16,GCATTCGC,-0.355
17,CTCGTGTC,-0.0223
18,CTACTTTA,-0.034
19,AGCCAGCA,-0.202
20,TGAGTCAA,-0.112
21,AACGGTAC,0.284
22,GCCTCAGC,-0.283
23,AATTATGC,0.0451
24,CATCTATA,0.0272
25,GAGCAGTA,0.103

row,Sequence,PBM E-score
1,CCGCCCGG,0.0274
2,AGCGACCA,-0.0582
3,CTCTGAAA,-0.0676
4,ATTAAGCC,-0.137
5,CGTTAGTC,-0.143
6,ATCTCCCG,-0.265
7,ACTAGGAA,0.0291
8,GCAAATGC,-0.162
9,ATCGAATC,0.0713
10,CCGCCGAC,0.00651
11,CGGACGTA,-0.00666
12,AATTAGGT,0.222
13,ATGGCTAA,-0.133
14,ATAGCTAA,-0.0958
15,AAACGCGG,0.0751
16,GGATGTAC,0.0192
17,AAGATTCT,-0.185
18,GTTCACGA,0.0724
19,CTCTACAG,0.14
20,CAGTTCTA,-0.166
21,CGGGATGA,-0.0209
22,CAGTTTAG,-0.056
23,CAAACCTC,-0.0042
24,CCCTCGTC,-0.134
25,CGTCCTGA,-0.122

row,Sequence,PBM E-score
1,CTCAAAAC,0.0953
2,CAAAACCA,0.311
3,ATAAGTGC,-0.129
4,GAATCTTA,0.00129
5,AAAACCTG,0.0984
6,GATTCACA,-0.204
7,GTCTCAAA,0.0694
8,GTGGCTGA,-0.269
9,GTAGGGAA,-0.112
10,GTCTTACA,-0.0947
11,ACAGCTTC,-0.0237
12,CAAACACC,0.0838
13,ATTCCGGC,-0.0867
14,CAATCTGC,-0.0901
15,CAGCGTCC,0.026
16,GATGAGTA,0.0479
17,CTCTAAGA,0.135
18,GACTCAAA,-0.055
19,AACGCTCA,-0.0354
20,CCACTTAG,-0.04
21,CCTGCCCC,-0.259
22,CTATTATC,0.0149
23,GACGACCA,-0.026
24,AATCAGCA,-0.0933
25,ACAACATA,0.0626

row,Sequence,PBM E-score
1,ACCAACGC,0.118
2,AATTCGCG,0.0543
3,AGGATAAA,0.11
4,AGGAAACA,0.196
5,GTATTCTA,0.139
6,ATTGTTAG,0.161
7,CTGATGGC,-0.0334
8,AATTTGTA,0.121
9,TAGCTCGA,0.0239
10,CCTTCTGC,-0.25
11,ACCTGCGA,0.0264
12,CATCTCGA,-0.0921
13,CCGGCCTC,-0.0295
14,GCCGGTAA,0.161
15,AACTAACT,0.00107
16,ATAGTTCC,-0.00068
17,CAAATTCG,-0.0821
18,GCAGAACC,0.0866
19,TCAAAAGA,0.078
20,CCATCACG,-0.0831
21,GTAGTGCA,0.19
22,ACACGACC,0.276
23,AGACTTGG,-0.23
24,CTGCTCAC,-0.117
25,CTGTCAAC,-0.0249

row,Sequence,PBM E-score
1,GAACTGTA,0.115
2,GGCATCAA,-0.199
3,CAAATAGG,0.0968
4,GGTCTTTA,0.16
5,ATGCGAAC,0.117
6,AATCGAGA,-0.161
7,ATCGTTAG,0.00203
8,AACCTGCT,0.179
9,CCGCGCTC,0.0675
10,CATTTACG,-0.163
11,GTTTGTCA,0.0476
12,ATGCCTAC,-0.292
13,AGAATTAG,-0.184
14,CCTGACTA,0.00387
15,TGAAGCAA,-0.0333
16,ATAATCTC,-0.0139
17,AAAAGCAA,-0.00278
18,ATCCCGAC,-0.0856
19,ATTGGTAG,0.0197
20,GCCGTAGA,-0.103
21,GGTAAGTA,0.0537
22,ACAAGACA,0.161
23,ACCGATAC,0.0986
24,AGGGGCAG,-0.186
25,ATTTCGAG,-0.0457

row,Sequence,PBM E-score
1,ATACGGAG,-0.139
2,CGTAGTAG,0.0278
3,AATAGCAA,0.18
4,CGTAGCGC,-0.276
5,GAATCGCA,-0.119
6,GCTTCTTA,0.0259
7,ATGCGTTA,0.0446
8,GAAGACAC,-0.163
9,CCGATGGA,-0.241
10,CGTTTAAA,0.0751
11,CAGTTTAC,0.0521
12,AGTTTAGC,-0.173
13,AATGCACG,-0.112
14,GACCTCGC,0.0843
15,ATAATCCC,-0.0328
16,AAGTCACG,-0.189
17,ATAACCAA,0.437
18,CAAAATCC,0.0864
19,AGCCACAA,0.153
20,AAAAATCT,0.157
21,AATAGTGG,0.0886
22,TCTAAGCA,-0.0707

# Reference: the supplement of paper PMC3334620
